Data published in ChEMBL document CHEMBL4888484, “Replenishing the malaria drug discovery pipeline: Screening and hit evaluation of the MMV Hit Generation Library 1 (HGL1) against asexual blood stage Plasmodium falciparum ,using a nano luciferase reporter read-out” (2022).
The campaign covered roughly 150,000 compounds. About 540 (0.36%) showed an effect of 50% or more. The list shows a part of the results.

Each molecule was assayed on Plasmodium falciparum (assay: Primary screen in NF54 nanoGlo assay, in single point, at 2uM, 72h; a lower Z score goes with more inhibition). Details: timepoint 72 hour.
Assay type: functional, Erythrocyte

SMILES	% Inhibition [%]	Z score
COc1ccc(-c2noc(-c3cnc([C@@H]4CCCO4)s3)n2)cc1OC	-1	0.22
O=C(N[C@H]1CCOc2ccccc21)c1ccc2ncsc2c1	-2	0.21
COc1ccc(CNC(=O)c2cc3c(=O)[nH]c(-c4ccccc4)cn3n2)cc1OC	-16	1.77
O=C(c1ccc(-n2cnnc2)nc1)N1CC[C@@]2(CCCN(CC3CC3)C2=O)C1	-19	2.53
COCC(C)(C)CNC(=O)c1c(C)ncnc1C	-4	0.59
CN(Cc1ccco1)c1ccc(S(C)(=O)=O)cc1C(F)(F)F	-10	1.53
Cc1csc(CNc2ccn([C@@H](C)c3ccccc3)n2)n1	-8	1.08
O=C(NS(=O)(=O)N1CCN(Cc2ccccc2)CC1)c1cccc2ccccc12	14	-2.15
CCN=C(NCc1nc(C)no1)NC[C@H](C)c1ccc(F)c(F)c1	-5	0.52
O=C1C2CC=CCC2C(=O)N1c1nc2ccccc2s1 (centres undefined)	-10	1.43
COc1nc(-c2cccc(F)c2)n(-c2ccc(NC(=O)c3ccc(F)cc3)cc2)n1	-10	1.43
Cn1cc([C@H](NC(=O)c2cc3c(s2)CCC3)c2ncon2)cn1	1	-0.14
Cc1cccc(-c2cc(NC(=O)CCCn3ccnc3)[nH]n2)c1C	-1	0.16
O=C1C2C(C(=O)N1c1ccc(Cl)cc1)C2(c1ccccc1)c1ccccc1 (centres undefined)	-8	0.85
CC(C)Oc1cccc(C(=O)NC2CCC3(CC2)NC(=O)NC3=O)n1 (centres undefined)	-8	0.78
COCCC[C@]1(C(=O)O)CCCN(c2cc(C3CC3)ncn2)C1	-10	1.65
COCC(=O)N1CCc2[nH]cnc2C12CCN(C(=O)c1cc(F)ccc1F)CC2	-11	1.04
CN1CCC(N(C)C(=O)CC[C@H]2CCCN(Cc3nc4ccccc4n3C)C2)CC1	-2	0.26
Cc1ccc(N2CCN(c3ccc(C)cc3)C2c2cccnc2)cc1	4	-0.58
COCCS(=O)(=O)NCc1nc(C(F)(F)F)cs1	-6	0.71
C[C@]12C(=O)N(c3ccccc3C(=O)NCCN3CCOCC3)C(=O)N1CCc1c2[nH]c2ccccc12	-13	1.89

SMILES	% Inhibition [%]	Z score
Cc1noc(C)c1CN(C)C(=O)c1cc(C(C)C)[nH]n1	-7	0.97
Cc1ccc(C(=O)N[C@@]2(C#N)CC2(C)C)c2c1CCC2	0	0.06
Cc1nn(C)cc1NC(=O)CN(Cc1nccn1C)C1CC1	2	-0.28
O=C(NCC1CCCC1)C1CCOCC1	-15	1.65
CC(C)n1nnnc1-c1ccccc1NS(=O)(=O)C1CC1	5	-0.9
C[C@@H](C1CC1)N(C)C(=O)c1cc(O)nc2ccccc12	7	-0.95
CCN(CCOc1ccccc1C)C(=O)C[C@H]1CNCCO1	-1	0.15
Cc1nn(C)cc1-c1ccc(C(=O)N2CCC(F)(F)CC2)cc1	-2	0.44
O=C(NCCC1=CCCCC1)[C@H]1CCCN(c2nc3ccccc3[nH]2)C1	2	-0.39
Cc1c(CN2C[C@@H](CN3CCCCCC3)[C@@H](CO)C2)oc2ccccc12	-2	0.45
O=C(c1cc2ccccc2s1)N1CCC(Oc2nncs2)CC1	-1	0.28
O=C(CCc1nc(CS(=O)(=O)c2ccccc2)no1)N1CCCCCC1	-1	0.1
COCCCn1c(C)cc(C(=O)N2CCC[C@H](c3nc(C)ncc3CO)C2)c1C	-3	0.44
CC(C)NC(=O)N1C[C@@H]2Oc3ccccc3S(=O)(=O)NC[C@H](O)CN(C)[C@@H]2C1	13	-1.96
Cc1nc(C)c(CNC(=O)c2ccc(C(C)C)nc2)o1	-3	0.59
CC(=O)Nc1ccc(S(=O)(=O)Nc2ccc(Oc3ccc(C)nn3)cc2)cc1	12	-1.57
COCc1cccc(CC(=O)N2CCCCC[C@H]2c2ncon2)c1	-10	1.39
CC(C)NC(=O)[C@@H]1C[C@@H](NC(=O)c2ccsc2)CN1c1ccnc(N)n1	-5	0.9
CC(C)(C)n1cc(C(=O)NC(c2ccccc2)C2CCOC2)nn1 (centres undefined)	-7	1.12
COc1cc(C)ccc1C(=O)NC(C)(C)c1ncc(OC)c(=O)[nH]1	-1	0.2
C[C@H](NS(=O)(=O)N1CCCCC1)c1cccnc1	6	-0.82

SMILES	% Inhibition [%]	Z score
COc1cccc(Cc2noc([C@H]3CCc4nc(C)nn4C3)n2)n1	-7	0.88
CC(C)Cc1noc(CN(C)C(=O)c2ccccc2[C@H]2CCNC2)n1	-13	2.11
Cc1csc(NC(=O)c2ccc3c(c2)C(=O)N(CCc2ccccc2)C3=O)n1	-17	2.09
COc1ccc(C(=O)N2CCCC2)c(OC2CCN(Cc3nnc(C)o3)CC2)c1	-12	1.86
CCCC(=O)n1nc(NCc2cccc3ccccc23)nc1NCc1cccc2ccccc12	0	-0.05
COCCn1cc(N[C@@H](CCC(C)C)C2CC2)cn1	-3	0.43
CCc1nccn1Cc1cn(CC(=O)N2CCOC(C)(C)C2)nn1	-7	0.92
O=C(NCc1noc(C(F)(F)Cl)n1)c1ccccc1C1CCC1	-3	0.64
CCN(CC)CCN1C(=O)[C@@H]2C(C(=O)Nc3ccc(C)c(Cl)c3)[C@@H]3C=C[C@]2(O3)C1C(=O)NC1CCCC(C)C1C (some centres undefined)	7	-1.05
Cc1noc(C)c1CN1CCC[C@H](NC(=O)c2n[nH]c3c2CCCC3)C1	-11	1.36
COc1cccc(NC(=O)c2sc3ncnc(N4CCCC[C@@H]4C)c3c2C)c1	1	-0.08
CCc1ccc([C@@H](NC(=O)C(=O)Nc2cccc3cccnc23)C(C)C)cc1	-2	0.31
Nc1nc(C2CC2)ncc1C(=O)NCc1ccccc1CN1CCOCC1	-5	0.84
CN(C)[C@@H](CNc1ccc(Cl)cn1)C1CC1	-4	0.53
Cc1nnc([C@@H]2CN(C(=O)Nc3ccc(OCCC(C)C)nn3)C[C@H](C)O2)o1	-4	0.66
COc1cccnc1C(=O)N1CCCN(CC2CC2)[C@H](C(C)C)C1	-11	2.16
O=C(NCCc1ccccc1)N1CC[C@H](OCc2ccccc2)C1	-13	2.28
COc1ccc([C@@H](C#N)C(=O)c2cc(OC)c3c(c2)OCO3)cc1	-5	0.61
Cc1cccc(-n2cc(-c3ccccc3)nc2NC(=O)CN(CC2CC2)C(=O)NC(C)(C)C)c1	-7	1.17
CCN(CCS(C)(=O)=O)C(=O)c1oc(Br)cc1C	-6	1.22
C[C@H](OC(=O)C1CCOCC1)c1c(F)cccc1N(C)C	-16	1.51

SMILES	% Inhibition [%]	Z score
Cc1ccc([C@@H](O)CNS(=O)(=O)N2CCCC2)cc1	-13	1.86
Cc1nn(C)c(N2CCN(c3ncnc4c(C)cccc34)CC2)c1N	-16	1.79
Cc1nc2nc3c(c(N4CCN(c5cccc(C(F)(F)F)c5)CC4)n2n1)CCC3	7	-0.6
Cc1nnc([C@@]23COC[C@@H]2CN(C(=O)c2cccc4[nH]ccc24)C3)o1	-10	1.33
CC1CCC(CC(=O)NC2CCN(CCS(C)(=O)=O)CC2)CC1 (centres undefined)	-1	0.2
CCCn1cc(CN2CCC(n3nccc3NC(=O)c3cccnc3)CC2)c(C)n1	-2	0.31
COc1cccnc1CC(=O)NC1(c2ccccc2)COC1	-7	0.97
CN(CCN(C)C1CC1)C(=O)c1cc2[nH]cnc2cc1F	31	-4.5
CCCn1c(C)cnc1C1CN(S(=O)(=O)c2ccc3c(c2)CCC3)C1	-14	1.75
Cc1cc(N(C)C)nc(N2CCN(C(=O)c3cccs3)CC2)n1	-16	3.13
Cc1cccc2cc3c(nc12)N(C(=O)C(C)(C)C)CC3	-7	0.84
CC1CCC(CC(=O)N[C@H]2CCOC3(CC(C(=O)O)C3)C2)CC1 (some centres undefined)	-9	1.52
Cc1c([C@H](C)NC(=O)c2cc(C3CC3)nc3onc(C4CC4)c23)cnn1C	8	-1.27
COc1ccc(N2C[C@@H](C(=O)OCCN(C3=NS(=O)(=O)c4ccccc43)c3ccccc3)CC2=O)cc1	-9	1.02
O=C(c1ccco1)N1CC2OCCN(Cc3ccccc3)C2C1 (centres undefined)	7	-0.97
Cc1ccc(NC(=O)N2CCN(c3ccc(C)cc3C)C(=O)[C@@H]2C)cc1	-4	0.66
O=C(CCC1CCN(C(=O)c2ccccc2F)CC1)Nc1ccc(N2CCOCC2)cc1	-17	2.35
NC(=O)CCN(Cc1ccncc1Cl)c1ccc(F)cc1	2	-0.23
Cc1nnsc1C(=O)N1CCCC1CC(O)c1cccs1 (centres undefined)	-6	0.72
